This note sets out measurements from the supplement of paper PMC4604168 (melanoma cell lines).

Each structure is given as a SMILES string. The list shows a part of the results. Many values rest on one well or one pass, so single values are uncertain.
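Note: cell number obtained by counting DAPI-stained nuclei in high-throughput microscope images with image analysis software, screen run in 1,536-well plates.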

This assay relates to WM1745. Put plainly: cell count relative to DMSO control; melanoma cells; higher = more viable cells. To be noted: library dose: low library concentration; 72 h.
`CC(C)(C)c1cnc(CSc2cnc(NC(=O)C3CCNCC3)s2)o1` + COc1ccc2c(c1)CCC1C2CCC2(C)C(NCCCCCCN3C(=O)C=CC3=O)CCC12 [U73122] (first compound 0.01 µM, partner dose 0.4 µM) yielded a cell count of 87.3%.

Turning to `CC(C)(C)c1cnc(CSc2cnc(NC(=O)C3CCNCC3)s2)o1` + Oc1cc(-c2nc(-c3ccccc3)[nH]c2-c2ccncc2)ccc1Cl [L779450] (first compound 0.01 µM, partner dose 0.2 µM), the cell count amounted to 75.6%. Compound `CC(C)(C)c1cnc(CSc2cnc(NC(=O)C3CCNCC3)s2)o1` + Cn1cc(/C=C2\C(=O)Nc3cccnc32)c2ccccc21 [GW441756] (first compound 0.01 µM, partner dose 0.4 µM) yielded a cell count of 84.5%. `CN(NC(=O)CC(=O)NN(C)C(=S)c1ccccc1)C(=S)c1ccccc1` + COc1cc2ncnc(Nc3ccc(Oc4ccccc4)cc3)c2cc1OC [SrcI1] (first compound 0.006 µM, partner dose 2 µM): the cell count amounted to 50.4%.

The compound `CCc1ccc(CCOc2ccc(CC3SC(=O)NC3=O)cc2)nc1` (stereo unspecified) [pioglitazone] + c1cc(-c2cnn3cc(-c4ccc(OCCN5CCCCC5)cc4)cnc23)ccn1 [Dorsomorphin] (first compound 2 µM, partner dose 0.4 µM) yielded a cell count of 95.3%.

`Cc1ccc(NC(=O)c2cccc(N(C)C)c2)cc1NC(=O)c1ccc(O)cc1` + Cn1cc(/C=C2\C(=O)Nc3cccnc32)c2ccccc21 [GW441756] (first compound 2 µM, partner dose 0.4 µM) registered a cell count of 83.6%. In the case of `CN(NC(=O)CC(=O)NN(C)C(=S)c1ccccc1)C(=S)c1ccccc1` + O=c1cc(-c2cccc3c2Sc2ccccc2S3)oc(N2CCOCC2)c1 [KU55933] (first compound 0.006 µM, partner dose 1 µM) it was 58.3%; in that of `CC(C)(C)c1cnc(CSc2cnc(NC(=O)C3CCNCC3)s2)o1` + O=C1NC(=O)/C(=C/c2ccc(-c3ccc(F)cc3O)o2)S1 [AS252424] (first compound 0.01 µM, partner dose 1 µM), 80.3%. For the compound `CN(NC(=O)CC(=O)NN(C)C(=S)c1ccccc1)C(=S)c1ccccc1` + O=C(Nc1ccccc1)c1cc([N+](=O)[O-])ccc1Cl [GW9662] (first compound 0.006 µM, partner dose 2 µM), the cell count was found to be 56.4%. `COc1cc2c(Oc3ccc4[nH]c(C)cc4c3F)ncnc2cc1OCCCN1CCCC1` [cediranib] + O=C(O)C(=O)Nc1sc2c(c1C(=O)O)CCNC2 [TCS401] (first compound 0.4 µM, partner dose 1.66667 µM) came in with a cell count of 93.6%.

As for `CC(C)(C)c1cnc(CSc2cnc(NC(=O)C3CCNCC3)s2)o1` + O=c1cc(-c2cccc3c2Sc2ccccc2S3)oc(N2CCOCC2)c1 [KU55933] (first compound 0.01 µM, partner dose 1 µM), the cell count was 98.5%.

Compound `COc1cc2c(Oc3ccc4[nH]c(C)cc4c3F)ncnc2cc1OCCCN1CCCC1` [cediranib] + CCc1ccc(CCOc2ccc(CC3SC(=O)NC3=O)cc2)nc1 [pioglitazone] (first compound 0.4 µM, partner dose 2 µM) returned a cell count of 81.2%.

`CN(NC(=O)CC(=O)NN(C)C(=S)c1ccccc1)C(=S)c1ccccc1` + O=C(O)C(=O)Nc1sc2c(c1C(=O)O)CCNC2 [TCS401] (first compound 0.006 µM, partner dose 1.66667 µM) showed a cell count of 63%. As for `CN(NC(=O)CC(=O)NN(C)C(=S)c1ccccc1)C(=S)c1ccccc1` + Cn1cc(/C=C2\C(=O)Nc3cccnc32)c2ccccc21 [GW441756] (first compound 0.006 µM, partner dose 0.4 µM), the cell count was 31.6%.

`Cc1ccc(NC(=O)c2cccc(N(C)C)c2)cc1NC(=O)c1ccc(O)cc1` + CCc1ccc(CCOc2ccc(CC3SC(=O)NC3=O)cc2)nc1 [pioglitazone] (first compound 2 µM, partner dose 2 µM) showed a cell count of 91.9%. On to `COc1cc2c(Oc3ccc4[nH]c(C)cc4c3F)ncnc2cc1OCCCN1CCCC1` [cediranib] + N#Cc1c(O)c2c(-c3ccc(-c4ccccc4O)cc3)csc2[nH]c1=O [A769662] (first compound 0.4 µM, partner dose 2 µM), for which the cell count turned out to be 104%.
